Whole data set: some 33,000 sequences, median “E-score (-0.5 to 0.5)” near -0.01, cut for the highest 2% near 0.26. The list shows a part of the results.
Target: Ste12 (UniProt P13574)
Assay: PBM E-score (8-mer binding enrichment) (E-score (-0.5 to 0.5)); higher = stronger / more preferred TF binding; most listed sequences are background and not binding sites
Details: protein concentration: 200 nM; construct: GST-DNA-binding domain
Procedure, shortened: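 For each ungapped eight-base word taken together with its reverse complement, the Universal PBM Analysis Suite assigned an E-score. Binding data came from GST-tagged yeast transcription factors, applied at about 100-200 nM, on universal all-10-mer Agilent arrays made double-stranded by primer extension. Fluorescent anti-GST marked bound protein, and scans were normalised with masliner.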

Sequence | PBM E-score
AGTCTGCG | -0.199
GAAGCGTC | -0.14
GAACGGGC | -0.104
CCTCCTCG | -0.23
CAGGTACC | -0.153
TCTCCGCA | -0.0817
CACGCAGA | -0.229
TATGGGAA | 0.0435
AAAAACGA | 0.272
ACTACAAC | 0.0873
CACATGGG | -0.076
AGCATCCC | -0.217
AGACCGAT | -0.0063
GTTGGGGA | -0.0474
AGTGGGTA | -0.167
CCAAGCGA | -0.152
AAGCGCGG | -0.0766
ATGAGGAA | 0.141
CATGCGGC | -0.0784
ATAGCAAA | 0.0867
GTATGAGA | -0.0324
GCAAGCCC | 0.0457
ATACTGCG | -0.11
AGTCACAA | -0.0023
CATGGTCC | -0.109

Sequence | PBM E-score
CAAGTTGG | 0.019
ATCCCATA | -0.0374
CCCGACAC | 0.0126
AACCAGCA | 0.104
CTAGAGCC | -0.276
CCACAACC | 0.111
AAGAGAGT | -0.159
CGGAAAAG | 0.0439
AACCTTTC | -0.107
ATTGTCGG | 0.15
GCGTGAGA | -0.0103
ATTTTTGC | 0.236
GACCGCGA | -0.0908
CCACTCAC | 0.00731
CATCCTGC | 0.00487
GCGATTAC | -0.187
CAAGATAG | -0.0407
GGTACAGA | 0.0601
CCTTAATA | 0.148
GATGCATA | 0.0252
ACTGGTGA | -0.323
CCCCCCCA | -0.133
CACTCTCC | -0.0276
GCTAGAAA | 0.183
GAATGTCA | -0.00591

Sequence | PBM E-score
CTCACACA | 0.0382
CCAGACCA | 0.0148
AGAATTAC | 0.0585
ACGCTAGC | -0.23
ATGGGAGC | -0.0972
TAGCCATA | -0.0521
CAACTGGA | -0.0914
GATGCGCC | -0.0658
AAGAATTG | -0.0081
GACACACC | 0.0782
TGAGCCAA | 0.0621
CTATGCAC | -0.0852
ATGGGTCA | -0.0892
ACAAATTA | 0.263
ATCTCCCC | -0.0162
AGTGCATA | -0.143
ACTACGCA | -0.118
CAGAGAGC | -0.0939
AACGGGCC | -0.0977
CAACCATC | 0.109
GGTTCGAC | -0.0189
CGTTCTCA | 0.0637
CCCTTAGA | -0.0808
TGACACAA | 0.199
AATGTGTC | 0.131

Sequence | PBM E-score
CCATCCCA | -0.0961
GCCGCCCC | 0.307
ATCGGCAA | -0.00833
ACTGCAGC | -0.0252
ACCGCCAC | -0.0369
AAGGAATT | 0.0259
TGTCGACA | -0.0855
AGGTGAAG | -0.00052
GTACATAA | -0.0371
ACAGATTC | 0.0802
GCACCGCA | -0.0352
AAAGAGTC | -0.165
AAGTGTCT | -0.0707
ATTTACAG | 0.016
CATGATCA | 0.0535
TAAGAGTA | 0.0931
CCAGAGGC | -0.019
CTGCATTA | -0.193
GGACTGGA | -0.249
AGGCTATA | 0.0193
ACCTGGGG | -0.191
CCGCTTAA | 0.0545
CGACGCCC | 0.0897
AGACGCCA | -0.0342
GCGATCCA | -0.0928

Sequence | PBM E-score
TACCTTCA | 0.101
CCAGCCAG | -0.138
AGATATTA | 0.064
AAACTCGG | 5e-05
ACCTCCTG | -0.161
ACCCTGGG | -0.0447
CATCAGCC | -0.0864
GATCAAGA | -0.0068
AATGAAAC | 0.44
AACGCGGG | 0.118
CACCGAGG | -0.121
CCGCGCGC | 0.24
AACCGTGG | -0.0665
ACCCAGTA | -0.0623
GTGGAGTA | -0.0195
ACGTCTCG | -0.0712
CATTAATA | 0.251
AATAGAGA | 0.0494
GCATAGAA | 0.0371
CAAGCGAG | 0.14
CATCCCCA | 0.0232
ACGAACGG | 0.101
AAGCAGCT | -0.0502
AGAGTCCC | -0.213
ATGTGCAC | -0.037

Sequence | PBM E-score
GGTAGACA | 0.00514
ATCTCTTA | 0.197
CTGCTGCC | -0.0246
CGGATAAA | 0.149
CCCGACTA | 0.0472
TATTGGAA | -0.00217
ACTTTACA | 0.241
AGGCTCGG | -0.112
ATTGCCGG | -0.0557
CAGCGCAC | -0.118
CGCTCTAC | -0.1
AGAAACCG | 0.182
GTCTGATA | 0.16
GCAGGGGC | -0.0825
ATGCGGCA | 0.123
CTCGACGA | -0.139
CCTGCTCG | -0.19
CTCAGGGA | -0.176
GCCAATCC | 0.0945
GATCGCTA | -0.0576
GCACTGGA | -0.307
AAAGTAGA | 0.0854
CTAAGGGC | -0.0565
GCAATTTA | 0.172
AGAGTGCC | -0.228

Sequence | PBM E-score
CGGCGGAG | 0.111
ATAATCAA | 0.151
CCATCCGA | 0.127
ATTTGACA | 0.141
TATGATAA | 0.131
AAACGCAT | 0.0934
TCGGGAAA | 0.175
GTCTAATA | -0.00905
AGTCCCTA | -0.137
GGGTCAAA | 0.0841
ATGCGCAG | -0.0835
ATAGGATA | 0.0716
GTTTCCAA | 0.218
CTAACAAC | -0.00345
AACTTACC | 0.0612
GACTAAAA | 0.254
ACGTATAG | -0.0188
CGACCGCC | 0.0385
TAAAATCA | 0.112
CACGGAGA | -0.0746
AACATGTT | 0.135
CGGGCACA | 0.00379
GCCGATAA | -0.12
CTCCAGGA | -0.112
AGTACTTG | -0.0362

Sequence | PBM E-score
CGAATATA | 0.0749
CGATCAGA | -0.12
ACCTCAAT | -0.103
TAATTGGA | 0.14
AAGTTTCG | 0.175
AAGTGATA | 0.079
AACAGGCC | -0.022
ATGTAATG | 0.122
CCAAACCC | 0.194
CAAGCCTC | -0.143
TTCAGAAA | 0.215
GGAGCAAA | -0.0132
CGGGGCGC | -0.0307
ACGGCGGG | 0.0447
AAAAGCCC | 0.00616
AGTGAGGA | 0.00496
AAAGCTTG | 0.0426
GGGTTCTA | -0.0297
GCGCAGGA | -0.22
CTTCTATA | 0.0173
CATACGAG | -0.0837
AATACCCT | 0.0119
CCTTACCC | -0.0323
GCTTCCAA | -0.0696
GCTTTGCC | -0.0625

Sequence | PBM E-score
AGCGGCGA | 0.131
AGTCAATA | 0.0771
ACGGATCA | 0.00359
CCGGTATA | 0.109
AAATTCTA | 0.0535
AACCTGGG | -0.231
GCAAAGTA | 0.0178
TCCCCACA | -0.0875
TTAACTAA | 0.221
AAGGTTGT | -0.0248
CCCGCACA | 0.023
ACCTTATC | 0.108
GCCTTCTA | -0.101
AGCCTCAA | -0.246
CCGGTGGC | -0.176
AAGACGGT | -0.13
GTTGTGCA | -0.196
GTTTTTGA | 0.236
ATGTACTC | -0.0594
ACCCAATG | -0.0408
ACGGCATC | -0.184
AACTTCGT | -0.0227
CCCACCCG | 0.358
CTCCGGTA | -0.177
AAAGTCTG | 0.0462

Sequence | PBM E-score
CACTGACA | 0.0228
CTGTTCAC | -0.0139
CATCAATG | 0.121
TCAGCTCA | -0.026
ACACGGCA | -0.0616
CTCCGCTC | 0.0335
ATTACCCG | 0.0371
ATGCTTCC | 0.118
GTTAGCGA | 0.0451
AAGGAATC | 0.00574
ACACCTGA | 0.11
ACAGGCAG | 0.0716
TCCAACCA | 0.0768
ATCTAGGG | 0.00231
ATCGTGCC | -0.0644
GACGTCTC | -0.0893
GAGTGAAA | 0.204
AGCACACC | -0.247
AACCAAAC | 0.0997
ACCAAAAA | 0.27
ATTTAGGC | 0.152
CAGATCTC | 0.117
AGGCTCCC | -0.169
CTGGAGCC | -0.138
AATGGGGT | -0.0055

Sequence | PBM E-score
ATCCTAGG | 0.0295
CCTACAGA | -0.0726
ACCCCGGT | -0.167
CGAGCACG | -0.0713
AGCGAGAT | 0.119
ATCGCTTC | -0.0328
CTTAAGGC | 0.00461
GCAAACCA | 0.147
CGTAGTTC | -0.145
GGTTAAAC | 0.0928
GCCGAGGC | 0.177
ATTTGGGC | -0.0608
CTGAAAAG | 0.0611
ATCCATGA | -0.125
CAGGACCA | -0.257
CCGTGGCC | -0.214
AGCCGAAG | -0.0604
GAACGTTC | -0.0161
GAGCGTAC | -0.257
ATTGCCAC | 0.0227
AGCGATTA | 0.0294
CCTTGCAC | -0.0181
CTGAGCAA | 0.0139
GCCGCGTA | -0.0616
AGTAGGCC | -0.0528

Sequence | PBM E-score
AACTGGTC | -0.0307
AGAGGGTG | -0.0796
GTAGCTAA | 0.073
CAGGCAGA | -0.121
CTAGCGGC | -0.19
CATGCTCA | -0.0961
AGCCTTCG | -0.235
CATGCCTC | -0.0916
AGATGATC | 0.0121
GTCTGCGA | -0.165
AGTCGTCG | -0.139
TGCAAGCA | -0.0855
CGTCATTC | 0.014
CTAAGTGC | -0.0598
CCATAGGG | -0.143
CGTGAAAG | 0.0979
ACTGCCCA | -0.127
ACCAGCTA | -0.106
ATTATCCC | 0.0652
ATGCGCAA | 0.0108
GGTTATAA | 0.167
CAACCACG | 0.0204
CTGCAGGC | -0.118
GCTAAACA | -0.085
CTATGCCA | -0.173

Sequence | PBM E-score
AAAGGCGT | -0.0449
AACCAAGG | 0.156
GCCTCAAA | 0.0976
ATCGTGGA | 0.119
GAAGCGAC | -0.196
AAGCCTAT | -0.0475
CGAGGATA | 0.0389
GCAAGGCA | -0.138
AGAGTTGC | -0.1
GGAAACAC | 0.225
ACGTGGCT | -0.118
CGGAGAGC | -0.0936
AGCTAAAT | -0.00982
GAAAACTA | 0.144
ATATGGCC | -0.162
CTCGATTA | 0.0815
CGGGCGTC | 0.0731
CGATTGTA | 0.156
ATTGCCTC | 0.00753
CAAGGGTA | 0.0306
TGCACCAA | -0.111
TATGTTCA | 0.0922
AGGCTGCC | 0.0205
CATACACC | 0.0556
AACGTTGA | 0.0304

Sequence | PBM E-score
AACACACG | -0.0496
AAACGTGA | 0.312
AGCAGTTG | -0.126
GCTCCCAA | -0.0782
ACTGGTAA | 0.0525
CATTTCAG | 0.0948
GCCGCAGA | 0.0237
GCTCGCCA | -0.0532
ACATTGTA | 0.156
AAGCCAAT | -0.014
CACAGGCG | -0.161
TAACAAAA | 0.182
TCGTTGCA | -0.0015
GGCCACAC | -0.0159
GCAGATGC | -0.154
AATGCTTG | -0.117
TTGCTAAA | -0.0171
GTCCGCCA | -0.0606
ATCTAGGC | -0.135
